From PubChem BioAssay AID651820 (National Center for Advancing Translational Sciences (NCATS), 2012)
In all, about 340,000 compounds went through this assay and about 12,000 (3.5%) were called active. Inconclusive means that the source gave no clear call. Such entries were picked first, then a sample of the others. Calls follow the shape of the dose curve; as a rule, active = well fitted inhibition curve with a large enough effect; inconclusive = small, poorly fitted or top-dose-only effect, or another doubt; inactive = no such curve, though single readings can be large or run the other way. Potencies of inconclusive entries are left out as doubtful fits. Some structures have more than one record in an assay (separate samples or runs), and their calls can disagree.

Experiment: qHTS Assay for Inhibitors of Hepatitis C Virus (HCV)
Conditions: Huh7.5.1 HCVcc-Cre (HCVcc is cell-culture hepatitis C virus) infection, luciferase reporter, 44 h; activity change, negative = inhibition: at 41.8 µM (top of the series) unless noted
How it was run: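 HCVcc-Cre virus at an moi near 0.5 was added right after compound to cells cultured 4 h from seeding (1,000 cells/well). Luciferase activity was determined 44 h later, 15 min after substrate addition at RT.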
% is scaled to controls: 0 for no effect and ±100 for the full control effect; potency is read from the fitted curve at half-maximal effect; tags tell the direction and shape of the fitted curve.

Q: With `Brc1ccccc1CN1CCN(Cc2c[nH]c3ccccc23)CC1` as the compound, how does the Potency read?
A: inactive

Q: Which Potency does the source give for `O=[N+]([O-])c1ccccc1CNCCO` here?
A: inactive

Q: For `Cc1ccc(NC(=O)CSc2ccccc2NC(=O)c2ccccc2)cc1Cl`, which Potency is on record?
A: inconclusive [inhibitor, single point]

Q: For `Cc1ccc2nc(-c3ccccn3)c(Nc3ccccc3C)n2c1`, which Potency is on record?
A: active: 5.01 µM

Q: Which Potency does the source give for `CCCCN(CC)CCCNC(=O)CS(=O)(=O)Cc1nc(-c2cccc(OC)c2)oc1C` here?
A: active: 20 µM

Q: Which Potency does the source give for `CCOC(=O)C1CCCN(C(=O)c2cccc(S(=O)(=O)N(C)c3ccc(C)cc3)c2)C1` (centres undefined) here?
A: inconclusive [inhibitor, partial curve]

Q: Which Potency does the source give for `CN1CCN(S(=O)(=O)c2cccc(C(=O)N(c3ccccn3)C3CCCCC3)c2)CC1` here?
A: inactive

Q: For `O=C(c1nc2ncccn2n1)N1CCc2ccccc2C1`, which Potency is on record?
A: inactive

Q: Which Potency does the source give for `Nc1cc2c3ccccc3ccc2c2ccccc12` here?
A: inconclusive [inhibitor, single point]

Q: Which Potency does the source give for `COc1ccc(S(=O)(=O)N2CCOCC2)cc1C(=O)Nc1ccc(N2CCCCCC2)cc1` here?
A: active: 14.1 µM

Q: Which Potency does the source give for `CCOC(=O)c1cnc2ccc(OCC)cc2c1NCc1ccccc1` here?
A: active: 10 µM

Q: For `Cc1ccc(C)c(Cn2cnc3c(cnn3C(C)(C)C)c2=O)c1`, which Potency is on record?
A: inconclusive [inhibitor, single point]

Q: With `COc1ccc(-c2cc(C(=O)N3CCCCCC3)c3ccccc3n2)cc1` as the compound, how does the Potency read?
A: inconclusive [inhibitor, partial curve]

Q: For `CCN=c1scc(-c2ccco2)n1/N=C/c1ccc(O)cc1`, which Potency is on record?
A: inconclusive [inhibitor, single point]

Q: With `CC1(c2ccc3c(c2)OCO3)NC(=O)N(CC(=O)NCCC2=CCCCC2)C1=O` (centres undefined) as the compound, how does the Potency read?
A: inconclusive [inhibitor, single point]

Q: For `COc1ccc(OC)c(NC(=O)CN2C(=O)COc3ccc(S(=O)(=O)N4CCCC4)cc32)c1`, which Potency is on record?
A: inactive

Q: With `CCCC1=Nc2cc(C(=O)N3CCC(C(=O)OCC)CC3)ccc2Sc2ccccc21` as the compound, how does the Potency read?
A: inconclusive [inhibitor, full curve]

Q: With `CCN1C(=NCC2CC2)N[C@@H](c2ccccc2)C(C(=O)OC)=C1C` as the compound, how does the Potency read?
A: inactive

Q: For `COc1ccc(CN2CCN(C(c3ccc(F)cc3)c3ccc(F)cc3)CC2)c(OC)c1OC`, which Potency is on record?
A: active: 1 µM

Q: With `CCc1c(C2(O)CCCCC2)[nH]c2c(C(=O)OC)cc(Cl)cc12` as the compound, how does the Potency read?
A: inconclusive [inhibitor, partial curve]

Q: For `COc1ccc(S(=O)(=O)Nc2ccc(Cc3ccncc3)cc2)cc1OC`, which Potency is on record?
A: inconclusive [inhibitor, single point]

Q: With `CCN(CC)CCCNc1nc2ccccc2c2nc(-c3ccncc3)nn12` as the compound, how does the Potency read?
A: inconclusive [inhibitor, single point]

Q: For `NC(=O)c1nsc(C(=O)N(c2cccc(F)c2)C(C(=O)NC2CCCC2)c2ccc(O)cc2)c1N` (centres undefined), which Potency is on record?
A: inconclusive [inhibitor, single point]

Q: For `Cc1nn2c(NCCCN(C)C)c3c(nc2c1-c1ccccc1)CCC3`, which Potency is on record?
A: inconclusive [inhibitor, full curve, poor fit]

Q: For `CCN(CC(=O)Nc1ccccc1C(F)(F)F)C(=O)c1oc2ccc(OC)cc2c1C`, which Potency is on record?
A: inconclusive [inhibitor, single point]

Q: Which activity change, negative = inhibition does the source give for `Cc1cccc(NC(=O)C2CCCN2S(=O)(=O)c2ccc3c(c2)n(C)c(=O)c(=O)n3C)c1` (centres undefined) here?
A: inactive: 2.02% [at 8.37 µM]

Q: With `COc1cc(CNc2ccc3[nH]c(=O)[nH]c3c2)ccc1OCc1cccc(C)c1` as the compound, how does the Potency read?
A: active: 6.31 µM

Q: Which Potency does the source give for `O=[N+]([O-])c1ccc(NN=CCCc2ccccc2)nc1` here?
A: inconclusive [inhibitor, single point]

Q: With `C[C@H](NC(=O)[C@H]1N2C(=O)c3ccccc3C2SC1(C)C)C(=O)N1CCN(C)CC1` (some centres undefined) as the compound, how does the Potency read?
A: inactive

Q: For `Cc1ccc(NC(=O)COC(=O)c2cccc3c(=O)c(C)c(-c4ccccc4)oc23)cc1`, which Potency is on record?
A: inconclusive [inhibitor, single point]

Q: With `COc1ccc(-c2csc3ncnc(N4CCN(S(=O)(=O)c5ccc(Cl)s5)CC4)c23)cc1` as the compound, how does the Potency read?
A: active: 10 µM

Q: Which Potency does the source give for `C/C(=N\Nc1ccc(C(F)(F)F)cn1)c1ccc(S(=O)(=O)NCc2ccco2)cc1` here?
A: inactive

Q: For `Cn1c(=O)c2c(nc(C3CC4C5CCC(C5)C4C3)n2C)n(C)c1=O` (centres undefined), which Potency is on record?
A: inconclusive [inhibitor, single point]

Q: Which Potency does the source give for `CCOC(=O)N1CCC(n2c(SCC(=O)Nc3ccccc3OC)nc3ccccc3c2=O)CC1` here?
A: inconclusive [inhibitor, single point]

Q: With `COc1ccc(Cn2c(C3CC3)nc3ccc(NC(=O)c4cccnc4)cc3c2=O)cc1` as the compound, how does the Potency read?
A: inconclusive [inhibitor, partial curve]

Q: With `COc1ccc(NC(=S)N(CCN(C)C)C(C)c2ccncc2)cc1Cl` (centres undefined) as the compound, how does the Potency read?
A: inconclusive [inhibitor, full curve]

Q: For `Cc1onc(-c2c(Cl)cccc2Cl)c1C(=O)N1CCN(c2ccccc2F)CC1`, which Potency is on record?
A: inconclusive [inhibitor, single point]

Q: Which Potency does the source give for `COc1ccc(-c2nc3ccccc3nc2-c2ccccc2)cc1OC` here?
A: inconclusive [inhibitor, single point]

Q: For `Cc1cccc(C)c1NC(=O)COc1ccc2c(C)c(Cc3ccccc3)c(=O)oc2c1`, which Potency is on record?
A: inconclusive [inhibitor, full curve, poor fit]

Q: For `CCC(=O)Nc1nnc(S(=O)(=O)N2c3ccccc3CC2C)s1` (centres undefined), which Potency is on record?
A: inactive

Q: With `Nc1ccc2oc(-c3cc(Br)ccc3Cl)nc2c1` as the compound, how does the Potency read?
A: inconclusive [inhibitor, partial curve]

Q: For `O=C(Nc1ccc(F)cc1F)c1ccc2c(=O)n3c(nc2c1)CCC3`, which Potency is on record?
A: inconclusive [inhibitor, full curve, poor fit]

Q: For `Cc1ccsc1C(=O)OCC(=O)Nc1cccc(S(=O)(=O)N2CCOCC2)c1`, which activity change, negative = inhibition is on record?
A: inconclusive: -34% [inhibitor]

Q: Which Potency does the source give for `O=C(Nc1cccc(S(=O)(=O)N2CCOCC2)c1)c1cc(S(=O)(=O)N2CCOCC2)c(Cl)cc1Cl` here?
A: inconclusive [inhibitor, single point]
